# Measurements published in PubChem BioAssay AID1030 (National Center for Advancing Translational Sciences (NCATS), 2008).
# The whole screen tested about 220,000 compounds, of which about 16,000 (7.3%) were called active. This list was built around the results that the source calls inconclusive (neither active nor inactive); the mix of calls is not that of the screen. Calls follow the shape of the dose curve; as a rule, active = well fitted inhibition curve with a large enough effect (not every such curve was filed as active); inconclusive = small, poorly fitted or top-dose-only effect, or another doubt; inactive = no such curve, though single readings can be large or run the other way. No potency is given beside an inconclusive call; the fits are too rough.
# Biological target: Aldehyde dehydrogenase 1A1 (Homo sapiens) (UniProt P00352)
# Experiment: qHTS Assay for Inhibitors of Aldehyde Dehydrogenase 1 (ALDH1A1);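 as to activity, negative = inhibition: plate controls were no enzyme wells and a reference inhibitor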
# Conditions: Purified ALDH1A1, NADH fluorescence, propionaldehyde substrate; series mostly up to 75.3 µM; activity, negative = inhibition: at the top concentration
# Potency is read from the fitted curve at half-maximal effect; tags tell the direction and shape of the fitted curve.
# UniProt P00352, sequence (P00352 whole entry, looked up): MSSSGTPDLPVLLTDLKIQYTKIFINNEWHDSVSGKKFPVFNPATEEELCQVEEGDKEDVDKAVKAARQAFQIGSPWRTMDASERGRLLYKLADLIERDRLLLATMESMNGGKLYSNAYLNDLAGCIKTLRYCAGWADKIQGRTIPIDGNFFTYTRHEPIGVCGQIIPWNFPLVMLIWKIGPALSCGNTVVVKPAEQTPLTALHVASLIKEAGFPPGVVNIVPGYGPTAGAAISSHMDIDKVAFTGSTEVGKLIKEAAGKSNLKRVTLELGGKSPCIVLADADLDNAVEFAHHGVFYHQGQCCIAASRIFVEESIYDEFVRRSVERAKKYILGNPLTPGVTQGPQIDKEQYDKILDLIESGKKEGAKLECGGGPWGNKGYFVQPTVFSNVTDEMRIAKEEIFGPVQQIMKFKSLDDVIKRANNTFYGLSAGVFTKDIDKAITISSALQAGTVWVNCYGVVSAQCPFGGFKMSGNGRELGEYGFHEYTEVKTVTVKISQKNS
Structure (SMILES),Potency,"activity, negative = inhibition"
CCN1C(=O)/C(=C/c2ccc(C)s2)NC1=S,"inconclusive [inhibitor, partial curve]",–
CN(C)CC(C)(C)NS(=O)(=O)c1ccc(Cl)cc1,–,inactive: 3.17%
CC(=O)N1CCc2cc3nc(C)cc(C)c3cc21,"inconclusive [inhibitor, partial curve]",–
Cc1cc(C(=O)COC(=O)c2nccnc2N)c(C)n1C,"inconclusive [inhibitor, single point]",–
O=C(Nc1nnc(-c2ccco2)o1)c1ccc(N2C(=O)CCC2=O)cc1,–,inactive: -11.7%
Cc1ccc(S(=O)(=O)Nc2ccc(N3CCOCC3)nc2)cc1,–,inactive: -5.39%
CN(C[C@@H](Cc1cccc2ccccc12)N(C[C@H](Cc1ccccc1)N(CCc1ccccc1)N=O)N=O)N=O,–,inactive: 4.51%
CCCC1=NN(c2ccc([N+](=O)[O-])cc2)C(=O)/C1=C\N(C)C,"inconclusive [inhibitor, single point]",–
CCNS(=O)(=O)c1ccc(CCC(=O)O)cc1,–,inactive: 21.8%
Cc1cc(NC(=O)CSc2nnc(C3COc4ccccc4O3)n2C)no1 (stereo not given),–,inactive: -4.51%
Cc1ccc(C(O)(C(=O)NNc2ccc3ccccc3n2)c2ccc(C)cc2)cc1,–,inactive: 7.43%
CC(C)CC(=O)NC1(C(F)(F)F)NC(=O)N(c2ccccc2)C1=O (stereo not given),–,inactive: 8.92%
COc1ccc(NC(=S)N(CCc2ccc(OC)c(OC)c2)Cc2ccccn2)cc1,"inconclusive [inhibitor, partial curve]",–
O=C(O)c1ccc(NC(=S)NC(=O)c2ccc(-c3ccccc3)cc2)cc1,active: 8.91 µM,–
COc1ccc(-c2[nH]ncc2-c2csc(C)n2)c(O)c1,–,inactive: 8.98%
Cc1cccc(C(=O)N[C@H](C(=O)Nc2nc3ccc(S(C)(=O)=O)cc3s2)C(C)C)c1,–,inactive: 16.1%
O=S(=O)(Nc1nc2ccccc2s1)c1ccc(Br)s1,"inconclusive [inhibitor, single point]",–
COc1ccc(C(=O)NCc2cccs2)cc1S(=O)(=O)N1CCOCC1,"inconclusive [inhibitor, single point]",–
CSc1nc(O)c(Cc2ccccc2)c(=O)[nH]1,–,inactive: -0.847%
CCOC(=O)c1ccccc1-c1cn2cc(Cl)ccc2n1,–,inactive: 10.1%
COc1ccc(C2CC(c3ccccc3)=NN2c2ccc(S(N)(=O)=O)cc2)cc1OC (stereo not given),"inconclusive [inhibitor, partial curve]",–
COc1ccccc1-c1cc(C(F)(F)F)nc(S(C)(=O)=O)n1,–,inactive: -4.38%
CC1(C)CC(=O)C2=C(C1)OC(c1cccs1)C(C#N)=C2N (stereo not given),active: 11.2 µM,–
OCCNc1nc(SCc2ccccc2)nc2sc3c(c12)CCC3,"inconclusive [inhibitor, single point]",–
COc1cccc(C(=O)N2CCCC(c3nc(-c4cccs4)no3)C2)c1 (stereo not given),"inconclusive [inhibitor, single point]",–

Structure (SMILES),Potency,"activity, negative = inhibition"
O=C(c1ccccc1)c1ccc2nc(-c3ccc(NC(=O)c4ccccc4Br)cc3)[nH]c2c1,"inconclusive [inhibitor, single point]",–
O=C1CCC(c2ccccc2)=NN1,–,inactive: -2.56%
O=C(c1cc(-c2ccc(Cl)c(Cl)c2)on1)N1CCCCC1,active: 8.91 µM,–
Cc1cc(C)nc(N2CCN(C(=O)c3ccc(S(=O)(=O)N4CCCCCC4)cc3)CC2)n1,active: 17.8 µM,–
O=C(CN1C(=O)/C(=C2\SC(=S)N(C3CCS(=O)(=O)C3)C2=O)c2ccccc21)Nc1ccccc1 (stereo not given),active: 7.08 µM,–
CCC(CC)c1nnc(NC(=O)c2cc([N+](=O)[O-])ccc2N2CCCCC2)s1,active: 7.94 µM,–
CCC(C)c1ccc(NC(=S)NN2CCOCC2)cc1 (stereo not given),"inconclusive [inhibitor, single point]",–
C=CCn1c(SCC(=O)Nc2ncc(Cc3cc(C(F)(F)F)ccc3Cl)s2)nnc1-c1ccncc1,–,inactive: 4.06%
CCOC(=O)CSc1nnc(-c2ccc(S(=O)(=O)N3CCOCC3)cc2)n1-c1ccccc1,"inconclusive [inhibitor, partial curve]",–
CCOC(=O)c1cc2c(=O)n3ccccc3nc2n(CC2CCCO2)c1=NC(C)=O (stereo not given),"inconclusive [inhibitor, partial curve]",–
Cc1ccc(S(=O)(=O)N2CCN(Cc3ccsc3)CC2)cc1,–,inactive: 1.39%
COC(=O)Nc1nnc(-c2ccccc2Cl)s1,"inconclusive [inhibitor, single point]",–
CCOc1ccc(CCNC(=O)c2cc3sccc3n2C)cc1OCC,"inconclusive [inhibitor, single point]",–
COc1ccc(N2CCC(CNC(=O)Nc3cccc(OC)c3)C2)cc1 (stereo not given),"inconclusive [inhibitor, partial curve]",–
CCOC(=O)c1cc(CC)sc1NC(=O)C1CC(=O)NN1Cc1ccccc1 (stereo not given),–,inactive: 4.24%
COc1ccc(C(=O)/C=C2\NCC3c4ccccc4CCN3C2=O)cc1 (stereo not given),active: 7.94 µM,–
CS(=O)(=O)c1nc(-c2ccc(Br)cc2)cc(-c2ccccc2)c1C#N,"inconclusive [inhibitor, partial curve]",–
CCOC(=O)c1cc(C(C)(C)C)oc1CNC(=O)c1c(C)oc2c1CCCC2,active: 17.8 µM,–
CCOCCCn1c(=N)c(C(N)=S)cc2c(=O)n3cccc(C)c3nc21,"inconclusive [inhibitor, partial curve]",–
O=S(=O)(c1ccccc1)n1ccc2ccccc21,"inconclusive [inhibitor, single point]",–
CSc1nc2c(c(=O)[nH]1)C(c1cccs1)C1=C(CCCC1=O)N2 (stereo not given),–,inactive: -1.98%
CCOC(=O)c1c(NC(=O)CSc2nnnn2CC)sc(C)c1C,"inconclusive [inhibitor, single point]",–
O=c1/c(=C/c2ccc(O)c([N+](=O)[O-])c2)sc2nc3ccccc3n12,–,inactive: -2.71%
CCC(=O)Nc1nonc1-c1nc2ccccc2n1Cc1ccccc1,"inconclusive [inhibitor, partial curve]",–
CCN1CCCc2cc(CN(CCN3CCOCC3)C(=S)Nc3cccc(Cl)c3)ccc21,"inconclusive [inhibitor, partial curve]",–
